Data taken from PubChem BioAssay AID624296 (National Center for Advancing Translational Sciences (NCATS), 2012).
The whole screen tested about 350,000 compounds, of which about 9,900 (2.8%) were called active. This list was built around the results that the source calls inconclusive (neither active nor inactive); the mix of calls is not that of the screen. The call rests on the fitted dose curve; in most records, active means well fitted activation curve with a large enough effect; inconclusive means small, poorly fitted or top-dose-only effect; inactive means no such curve, though single readings can be large or run the other way. No potency is given beside an inconclusive call; the fits are too rough.

Test: A quantitative high throughput screen for small molecules that induce DNA re-replication in MCF 10a normal breast cells. Further: nearly all actives have a fitted effect of over 50% in size. On activity, positive = re-replication: % of control where 0% means no effect.
Details: MCF 10A DNA re-replication, Hoechst nuclear intensity, 48 h; activity, positive = re-replication: at 46.1 µM (top of the series)
Potency means the concentration at half of the fitted maximal effect; tags describe the fitted curve by direction and shape.

Compound | Potency | activity, positive = re-replication
c1cc(-c2noc(CCC3CCCC3)n2)ccn1 | inconclusive [activator, partial curve, poor fit] | –
O=C(NCCCO)c1ccc(CSc2nc3ccccc3[nH]2)cc1 | inconclusive [activator, single point] | –
Cc1ccc(S(=O)(=O)NCC(=O)OCc2nnc(-c3ccccc3)o2)cc1 | – | inactive: 9.36%
CCOC(=O)c1ccccc1NC(=O)CSc1nc2c(sc(=S)n2CC)c(=O)[nH]1 | inconclusive [activator, single point] | –
Nc1nnnn1CC(=O)N/N=C/c1ccc(-c2cccc(Cl)c2)o1 | inconclusive [activator, partial curve, poor fit] | –
COc1cc(/C=N/NC(=O)c2cccnc2)ccc1OS(=O)(=O)c1ccc(C)cc1 | – | inactive: 0.253%
CN1CCN(NC(=O)/C=C/c2ccc(C(C)(C)C)cc2)CC1 | – | inactive: -4.79%
Cc1cc(C(=O)O)ccc1NCc1ccncc1 | inconclusive [activator, single point] | –
Cc1ccc2nc(Nc3ccc(C)c(C)c3)c3nncn3c2c1 | inconclusive [activator, single point] | –
COc1cccc(/C=N/NC(=O)c2cccc3ccccc23)c1OC | – | inactive: 6.21%
COc1cccc(C(=O)NNC(=O)c2ccccc2Br)c1 | inconclusive [activator, partial curve, poor fit] | –
O=S(=O)(Nc1nc(-c2ccccc2)cs1)c1cccc(C(F)(F)F)c1 | inconclusive [activator, single point] | –
CC1=C(C(=O)OC2CCCCC2)C(c2ccc(N(C)C)cc2)NC(=O)N1 (stereo unspecified) | – | inactive: 3.11%
CSc1nnc(-c2ccco2)c(-c2ccco2)n1 | inconclusive [activator, single point] | –
Cc1ccc(CNC(=O)Cc2ccc(-n3c(=O)[nH]c4ccsc4c3=O)cc2)cc1 | active: 2.06 µM | –
CCc1cc(C(=O)OC)c(NC(=O)CCCC(=O)O)s1 | inconclusive [activator, single point] | –
N#CCC(=O)NN | – | inactive: -0.612%
O=C(O)CC1Cc2ccccc2C1C(=O)O (stereo unspecified) | – | inactive: -3.48%
O=C(O)CCCCOn1ccnc1 | inconclusive [activator, full curve, poor fit] | –
CC(=O)CC(=O)Nc1ccc(Nc2ccccc2)cc1 | inconclusive [activator, single point] | –
O=S1(=O)CCN2C(c3cccc4ccccc34)=CSC2=N1 | inconclusive [activator, single point] | –
COc1ccc2cc(C(=O)N3CCN(c4ccc(F)cc4)CC3)[nH]c2c1 | inconclusive [activator, single point] | –
CCN(CC)C1=N/C(=C\c2ccco2)C(=O)N1c1ccccc1 | inconclusive [activator, single point] | –

Compound | Potency | activity, positive = re-replication
COc1cc2ccccc2cc1C(=O)N/N=C/c1ccc2c(c1)OCO2 | inconclusive [activator, full curve] | –
COc1ccc(-n2c(C)c([N+](=O)[O-])c3ccc(O)c(CN4CCCCC4)c32)cc1 | inconclusive [activator, single point] | –
CC(=O)N1CCN(C(=O)c2ccc(Oc3ccccc3)cc2)CC1 | – | inactive: -11.9%
O=C(Nc1ccccc1Cl)c1ccc(S(=O)(=O)NCC2CCCO2)cc1 (stereo unspecified) | – | inactive: -4.54%
CCCOc1ccc2nc(NC(=O)OC)sc2c1 | inconclusive [activator, full curve] | –
O=C(NCc1cccnc1)c1ccc(CS(=O)(=O)Cc2ccc(Cl)cc2)o1 | – | inactive: 1.92%
O=[N+]([O-])c1cc(/C=N/O)ccc1Oc1ccccc1Cl | inconclusive [activator, single point] | –
O=C(NC(=S)Nc1ccc(NC(=O)c2cccs2)cc1)c1cc2ccccc2o1 | inconclusive [activator, single point] | –
c1ccc2c(c1)ncn2CCn1cnc2ccccc21 | – | inactive: -0.332%
CCOc1ccc(C(=O)CCC(=O)N2CCC(C(=O)OC)CC2)cc1 | inconclusive [activator, single point] | –
CCOc1[nH]n(-c2ccc(Cl)cc2)c(=O)c1C=Nc1ccc(OC)cc1 | – | inactive: 0.657%
CCOC(=O)CN(C(=O)Cn1nnc(-c2ccc(C)cc2)n1)C(CC)C(=O)NC1CCCC1 (stereo unspecified) | – | inactive: 0.538%
Cc1noc(C(=O)Nc2ccc3c(c2)OCO3)c1Cl | – | inactive: 0.25%
CCOc1ccc(S(=O)(=O)Nc2ccccc2SC)cc1 | – | inactive: -9.01%
CCCOc1ccc(C(=O)NNC(=S)NC(=O)c2cc(-c3ccc(Cl)cc3)nc3ccccc23)cc1 | inconclusive [activator, partial curve] | –
O=C(N/N=C/c1cn(-c2ccccc2)nc1-c1cc2ccccc2o1)c1cccnc1 | inconclusive [activator, single point] | –
CC(C)COC(=O)Nc1nnc(SCCOc2ccccc2)s1 | inconclusive [activator, partial curve, poor fit] | –
COC(=O)[C@H](Cc1ccc(O)cc1)NC(=O)Cn1cnc(C(=O)Nc2ccc(C)c(C)c2)n1 | inconclusive [activator, single point] | –
CC1CCCN(C(=O)CN2CCN(C(=O)c3ccco3)CC2)C1 (stereo unspecified) | inconclusive [activator, partial curve, poor fit] | –
O=C(N(c1ccccc1)c1ccccc1)N(c1ccccc1)c1ccccc1 | inconclusive [activator, single point] | –
COc1ccc(Sc2nc(-c3ccccn3)ncc2OC)cc1 | inconclusive [activator, single point] | –
CC(=O)c1cc2c(cc1NC(=O)c1ccc(-n3nc(C)cc3C)cc1)OCO2 | inconclusive [activator, single point] | –
O=C(Nc1ccc(Oc2ccccc2)cc1)C1CCN(c2c3c(nc4ncnn24)CCC3)CC1 | inconclusive [activator, single point] | –
